Test results published in article PMC4081100.
The list shows a part of the results, in another mix than the full data. For part of these data: At the low end of the ranking the order means little. The list shows a part of the results. For part of these data: The source does not settle which construct or isoform was used.

Key:
Test in all cases: universal protein binding microarray (PBM)
Settings in all cases: transcription factors of Arabidopsis thaliana; high values mean tight binding; most listed sequences are background and not binding sites; double strand, one strand shown
GST-NTL6(1-168) = GST-NTL6(1-168) (UniProt Q9SCK6)
GST-ANAC019 NAC domain = target: T1, GST-ANAC019 NAC domain (UniProt Q9C932)
T1 sequence: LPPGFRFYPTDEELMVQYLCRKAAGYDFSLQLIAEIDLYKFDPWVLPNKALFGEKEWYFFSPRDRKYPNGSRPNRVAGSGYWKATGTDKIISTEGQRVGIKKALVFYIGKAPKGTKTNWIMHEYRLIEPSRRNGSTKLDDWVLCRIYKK

GST-ANAC055(1-171) = target: T2, GST-ANAC055(1-171) (UniProt Q9LDY8)
T2 sequence: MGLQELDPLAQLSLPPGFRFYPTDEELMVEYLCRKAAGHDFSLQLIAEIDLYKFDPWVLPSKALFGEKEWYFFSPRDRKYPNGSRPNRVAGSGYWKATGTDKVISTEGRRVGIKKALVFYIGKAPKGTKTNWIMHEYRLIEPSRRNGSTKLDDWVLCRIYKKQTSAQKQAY

GST-NAP(1-166) = target: T3, GST-NAP(1-166) (UniProt O49255)
T3 sequence: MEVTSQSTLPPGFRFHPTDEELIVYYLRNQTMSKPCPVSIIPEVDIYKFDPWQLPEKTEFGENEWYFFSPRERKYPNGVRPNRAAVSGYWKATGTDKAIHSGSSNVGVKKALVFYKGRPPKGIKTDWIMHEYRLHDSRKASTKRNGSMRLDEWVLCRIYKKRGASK

GST-NST2(1-184) = target: T4, GST-NST2(1-184) (UniProt Q9M274)
T4 sequence: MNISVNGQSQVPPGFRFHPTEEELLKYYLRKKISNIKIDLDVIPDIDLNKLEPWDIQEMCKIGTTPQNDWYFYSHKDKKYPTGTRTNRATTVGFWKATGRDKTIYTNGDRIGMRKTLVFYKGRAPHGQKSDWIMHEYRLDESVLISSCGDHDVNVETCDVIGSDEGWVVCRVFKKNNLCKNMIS

GST-VND3 NAC domain = target: T5, GST-VND3 NAC domain (UniProt Q9FH59)
T5 sequence: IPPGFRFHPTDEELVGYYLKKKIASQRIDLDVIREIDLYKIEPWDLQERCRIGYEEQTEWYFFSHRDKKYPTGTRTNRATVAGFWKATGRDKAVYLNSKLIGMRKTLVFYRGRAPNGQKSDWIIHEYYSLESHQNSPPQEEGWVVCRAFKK

GST-VND7 NAC domain = target: T6, GST-VND7 NAC domain (UniProt Q9C8W9)
T6 sequence: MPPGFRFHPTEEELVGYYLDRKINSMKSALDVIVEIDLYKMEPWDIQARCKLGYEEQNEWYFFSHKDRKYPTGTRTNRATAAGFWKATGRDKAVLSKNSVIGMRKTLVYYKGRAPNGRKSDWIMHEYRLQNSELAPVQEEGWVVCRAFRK

[1] = target: T7, GST-VOZ2 (Arabidopsis thaliana) (UniProt Q9SLB9)
T7 sequence: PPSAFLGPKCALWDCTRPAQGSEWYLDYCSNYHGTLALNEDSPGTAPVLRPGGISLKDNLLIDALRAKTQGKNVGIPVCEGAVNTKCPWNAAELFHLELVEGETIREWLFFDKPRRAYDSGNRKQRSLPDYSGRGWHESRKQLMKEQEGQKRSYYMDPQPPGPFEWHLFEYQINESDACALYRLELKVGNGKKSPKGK

GST-WRKY1(266-371) = GST-WRKY1(266-371) (UniProt Q9SI37)
GST-NTL8 NAC domain = target: T8, GST-NTL8 NAC domain (UniProt Q9XIN7)
T8 sequence: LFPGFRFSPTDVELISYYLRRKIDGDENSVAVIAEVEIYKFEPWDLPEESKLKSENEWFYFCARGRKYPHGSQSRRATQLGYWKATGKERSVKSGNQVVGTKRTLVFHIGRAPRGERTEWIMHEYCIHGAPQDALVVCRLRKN

GST-ANAC092(1-176) = target: T9, GST-ANAC092(1-176) (UniProt Q9FKA0)
T9 sequence: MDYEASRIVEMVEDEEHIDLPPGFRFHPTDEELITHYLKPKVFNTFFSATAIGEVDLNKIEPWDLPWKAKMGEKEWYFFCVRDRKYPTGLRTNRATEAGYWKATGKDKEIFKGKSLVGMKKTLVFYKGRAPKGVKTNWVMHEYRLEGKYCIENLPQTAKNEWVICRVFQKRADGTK

GST-ATAF1 NAC domain = target: T10, GST-ATAF1 NAC domain (UniProt Q39013)
T10 sequence: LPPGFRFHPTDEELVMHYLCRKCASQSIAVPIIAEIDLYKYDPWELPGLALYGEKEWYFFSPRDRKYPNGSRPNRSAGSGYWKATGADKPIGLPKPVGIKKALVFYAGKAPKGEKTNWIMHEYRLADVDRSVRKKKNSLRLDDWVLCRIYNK

[2] = target: T11, GST-ANAC092(1-285) full length (UniProt Q9FKA0)
T11 sequence: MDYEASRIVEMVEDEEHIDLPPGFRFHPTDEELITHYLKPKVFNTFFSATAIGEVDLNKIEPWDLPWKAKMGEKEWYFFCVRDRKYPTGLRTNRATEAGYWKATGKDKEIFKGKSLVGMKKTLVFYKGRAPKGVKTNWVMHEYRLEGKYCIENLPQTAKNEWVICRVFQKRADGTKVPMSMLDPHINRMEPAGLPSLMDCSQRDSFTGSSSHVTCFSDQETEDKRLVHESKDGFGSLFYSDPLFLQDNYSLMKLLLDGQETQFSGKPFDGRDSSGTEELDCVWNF

| Sequence | binding signal (GST-NTL6(1-168)) [E-score] | binding signal (GST-ANAC019 NAC domain) [E-score] | binding signal (GST-ANAC055(1-171)) [E-score] | binding signal (GST-NAP(1-166)) [E-score] | binding signal (GST-NST2(1-184)) [E-score] | binding signal (GST-VND3 NAC domain) [E-score] | binding signal (GST-VND7 NAC domain) [E-score] | binding signal [1] [E-score] | binding signal (GST-WRKY1(266-371)) [E-score] | binding signal (GST-NTL8 NAC domain) [E-score] | binding signal (GST-ANAC092(1-176)) [E-score] | binding signal (GST-ATAF1 NAC domain) [E-score] | binding signal [2] [E-score] |
| --- | --- | --- | --- | --- | --- | --- | --- | --- | --- | --- | --- | --- | --- |
| TGAAGTAA | 0.377 | -0.00485 | 0.155 | -0.00923 | 0.324 | 0.131 | 0.132 | 0.124 | -0.0561 | – | – | – | – |
| ATCGCGTA | -0.00688 | 0.0371 | -0.000445 | 0.149 | 0.211 | 0.00987 | 0.104 | 0.218 | -0.0745 | 0.018 | – | – | – |
| GGAGGGAA | – | – | -0.0817 | 0.074 | -0.0429 | -0.11 | -0.0611 | 0.106 | -0.11 | – | 0.0257 | 0.03 | -0.166 |
| GCGTACGC | -0.0563 | 0.287 | 0.265 | – | – | 0.0861 | 0.346 | 0.134 | -0.156 | -0.0138 | – | – | – |
| GAGGAAAC | 0.00167 | 0.0142 | 0.00211 | – | 0.017 | 0.0216 | -0.0189 | -0.137 | -0.13 | 0.465 | – | – | – |
| AAGGGTCA | – | -0.0512 | -0.0496 | -0.0935 | -0.00411 | 0.0269 | 0.029 | -0.0224 | 0.409 | 0.0489 | 0.0421 | -0.0824 | 0.0121 |
| ACGCAATG | 0.0271 | 0.32 | – | – | – | 0.314 | 0.311 | 0.0544 | 0.0356 | – | – | 0.162 | – |
| CTGGCGTA | -0.0241 | – | – | -0.0584 | – | -0.0231 | 0.0306 | 0.0789 | -0.177 | -0.0477 | 0.371 | 0.00081 | – |
| GCTAAGGA | – | -0.00951 | -0.108 | -0.045 | -0.00148 | -0.129 | -0.0159 | -0.0841 | -0.17 | -0.0279 | 0.0227 | -0.0461 | – |
| CTCACGCA | 0.0381 | – | – | – | – | 0.194 | 0.193 | 0.0563 | -0.0579 | – | – | – | – |
| GTAAGAAA | 0.422 | 0.224 | 0.206 | – | – | 0.16 | 0.19 | 0.208 | -0.0658 | – | – | 0.311 | – |
| GAAGTAAC | 0.381 | 0.0356 | – | -0.0276 | – | -0.0252 | 0.0217 | 0.0123 | -0.186 | – | – | – | – |
| AGGGGAAA | – | 0.112 | 0.0183 | – | -0.0321 | 0.0154 | 0.132 | 0.0561 | -0.0554 | – | 0.191 | 0.017 | 0.0577 |
| AACACGCA | -0.0794 | – | – | – | – | 0.346 | 0.34 | 0.0167 | -0.117 | -0.0353 | 0.469 | 0.315 | – |
| ATTACGCA | -0.0222 | 0.168 | – | – | – | 0.265 | 0.253 | 0.169 | -0.084 | -0.0281 | – | – | – |
| ACCGTTGA | -0.0239 | 0.0224 | -0.00817 | – | 0.0165 | -0.049 | 0.013 | 0.0945 | 0.404 | 0.013 | – | 0.038 | – |
| AAGCAAGC | 0.167 | 0.0929 | -0.0323 | -0.0647 | – | 0.139 | 0.114 | -0.176 | -0.23 | – | – | -0.0987 | 0.417 |
| CTTTGACC | -0.0707 | -0.0329 | -0.0345 | -0.0305 | 0.0033 | 0.039 | -0.129 | -0.0125 | 0.488 | 0.0261 | – | -0.0593 | -0.0981 |
| AGGTAAGG | – | – | -0.0267 | -0.0174 | 0.0194 | -0.0612 | 0.0475 | 0.0855 | -0.0049 | 0.424 | 0.0372 | 0.0332 | – |
| GCTTTCCC | – | – | -0.0233 | -0.0554 | -0.0421 | -0.0491 | 0.0285 | 0.0575 | -0.186 | 0.423 | 0.124 | -0.131 | – |
| GGAGGTAA | 0.202 | – | – | – | – | 0.139 | 0.0814 | 0.0718 | -0.103 | 0.435 | – | – | – |
| AGGGAAAG | – | – | -0.0598 | -0.084 | -0.169 | -0.0401 | -0.0742 | 0.00386 | -0.0405 | 0.473 | – | -0.0871 | -0.0199 |
| CACACGCC | -0.205 | – | – | 0.0229 | – | 0.028 | 0.0208 | 0.105 | -0.213 | -0.0281 | – | – | – |
| GGTCAAAA | – | -0.109 | – | -0.0558 | -0.00022 | 0.0741 | -0.0183 | 0.114 | 0.478 | – | – | 0.0384 | 0.043 |
| GAAGAAAC | 0.295 | – | – | 0.00068 | – | 0.00159 | 0.0868 | 0.0945 | -0.0533 | 0.423 | – | – | – |
| TAAAGTCA | 0.0322 | 0.0117 | 4.5e-05 | -0.0664 | 0.0158 | -0.062 | -0.141 | -0.0671 | – | -0.102 | -0.0308 | – | – |
| GTCAAGAA | -0.0322 | 0.0464 | 0.0615 | 0.0595 | 0.0986 | 0.00283 | -0.0145 | -0.116 | – | 0.0297 | – | – | – |
